# Test results reported in PubChem BioAssay AID463173 (ICCB-Longwood Screening Facility, Harvard Medical School, 2010).
# Hit rate of the full screen: of about 52,000 compounds, about 4,300 (8.3%) were called active. No stated cut-off is given here; in the data, active means survival mostly below about 52% (no sharp cut-off); inactive means mostly above about 56%. The list shows a part of the results.
# Tested on: DeltatarO mutant
# Assay: growth inhibition of S. aureus wild type versus tarO mutant, primary screen, teichoic acid synthesis inhibitors, RN4220, OD600 (AID 463173)
# Settings: OD600, 18 h, active compounds read low, screened at 18.75 µg/mL (by protocol)
row,SMILES,survival
1,CNC(=O)c1nc(-c2ccccc2)oc1C,inactive: 87%
2,COc1ccccc1NCc1cccn1-c1nnc(N2CCCCCC2)s1,inactive: 67%
3,Cc1cc(C)n(-c2nc3ccccc3nc2Nc2ccc(Cl)c(Cl)c2)n1,active: 0%
4,COC(=O)c1ccc(NC(=O)CC2Nc3cc(C)c(C)cc3NC2=O)cc1 (stereo not given),inactive: 56%
5,Cc1cccc(OCC(=O)Nc2c(C(=O)N3CCN(c4ccccc4F)CC3)oc3ccccc23)c1,inactive: 79%
6,CCCCC(=O)OCc1cc(=O)n2nc(C3CCCCC3)sc2n1,inactive: 115%
7,CCC1CN(C(=O)Nc2cc(C)ccc2OC)c2cc(Cl)ccc2O1 (stereo not given),active: 44%
8,CCOC(=O)CSc1nc2cc3c(cc2c(=O)n1CCCC(=O)NCCc1ccc(OC)c(OC)c1)OCO3,active: -2%
9,CCOC(=O)c1sc(N2C(=O)c3oc4ccc(C)cc4c(=O)c3C2c2ccccc2F)nc1C (stereo not given),inactive: 182%
10,COc1cccc(CNC(=O)c2cc(S(=O)(=O)N3CCCCCC3)cn2C)c1,inactive: 82%
11,CCOC(=O)c1c(NC(=O)CSc2cn(CCNC(=O)c3ccc(OC)c(OC)c3)c3ccccc23)sc2c1CCCC2,inactive: 80%
12,Cc1ccc(NC(=O)N2CCc3cc(S(=O)(=O)N4CCC(C)CC4)ccc32)cc1F,inactive: 105%
13,CCOC(=O)c1ccc(N2C(=O)c3[nH]nc(-c4ccc(OC)cc4)c3C2c2ccccc2Cl)cc1 (stereo not given),inactive: 97%
14,CCCc1cc(=O)n2[nH]c(NC(=O)c3ccccc3Cl)nc2n1,inactive: 111%
15,CCOC(=O)N1CCN(C(=O)CN(c2cccc(Cl)c2)S(=O)(=O)c2ccccc2)CC1,inactive: 59%
16,COc1ccc(C2c3c(n(C)c4ccccc34)C(=O)N2CC(=O)Nc2cc(Cl)ccc2C)cc1 (stereo not given),inactive: 89%
17,O=C(Nc1ccccc1)N(Cc1cccs1)c1ccc(F)cc1,inactive: 78%
18,Cc1ccccc1C(=O)NC1CCN(Cc2nnnn2C2CCCC2)CC1,inactive: 101%
19,Cc1ccc(-n2c(SCC(N)=O)nc(O)c(C)c2=O)cc1,inactive: 103%
20,COc1ccc(C)cc1NC(=O)Cn1c(=O)c(C(F)(F)F)nc2ccccc21,inactive: 94%
21,CN(C)S(=O)(=O)c1ccc2c(c1)N(CC(=O)NCc1ccc(F)cc1)C(=O)CS2,inactive: 124%
22,COc1ccc(Oc2c(C(F)(F)F)oc3c(CN4CCCC(C)C4)c(O)ccc3c2=O)cc1 (stereo not given),inactive: 68%
23,Cc1ccc(NC(=O)Cn2cc3c(n2)CCCC3)c(Cl)c1,inactive: 92%
24,COc1ccccc1N1CCN(c2ccc(=O)n(CC(=O)NCc3ccc(OC(C)C)cc3)n2)CC1,inactive: 97%
25,COc1ccc(NC(=O)Cn2c(=O)n(Cc3nc(-c4ccccc4)no3)c(=O)c3cc4c(cc32)OCO4)c(OC)c1,inactive: 94%
26,O=C(Nc1ccc2oc(-c3cccnc3)nc2c1)c1ccc(Br)cc1,inactive: 65%
27,Cc1nn(CC(=O)NCc2ccc(Cl)cc2)c(=O)c2cc3sccc3n12,inactive: 123%
28,Cc1ccc(N2CCN(S(=O)(=O)c3cc(C(=O)Nc4cc(Cl)cc(Cl)c4)ccc3F)CC2C)cc1 (stereo not given),inactive: 72%

row,SMILES,survival
1,CC(=O)c1ccc(NC(=O)C2Cc3ccccc3N2C(=O)c2ccccc2)cc1 (stereo not given),inactive: 107%
2,CC(=O)Nc1nonc1-c1nnc(SCC(=O)Nc2cccc(F)c2)n1-c1ccccc1,active: 19%
3,Cc1ccc(CN2CCCn3nc(C(=O)NC(C)C)cc3C2=O)cc1,active: 0%
4,COC(=O)c1scc(-c2ccc(C)cc2)c1S(=O)(=O)Nc1ccc(F)cc1F,inactive: 87%
5,O=C(O)c1ccc(Nc2nc3ccccc3n3cnnc23)cc1,inactive: 95%
6,O=C1C=CC(=O)N1c1ccc(-c2cnc(-c3ccc(N4C(=O)C=CC4=O)cc3)nc2)cc1,inactive: 73%
7,Cc1cccc(-c2nc3scc(CCNS(=O)(=O)c4ccc(Oc5ccccc5)cc4)n3n2)c1,inactive: 88%
8,COc1ccc(-n2nc(C(=O)Nc3cc(OC)c(OC)c(OC)c3)c(=O)n(C)c2=O)cc1,inactive: 129%
9,O=C(Nc1ccc2oc(-c3cccnc3)nc2c1)c1ccc(-c2ccccc2OC(F)(F)F)o1,inactive: 61%
10,COc1ccc(-c2cc3ccc(O)c(CN4CCC(C)CC4)c3oc2=O)cc1,inactive: 71%
11,CC1=C(c2ccc(C)cc2)S(=O)(=O)NC1=NCCCN1CCN(c2ccccc2F)CC1,inactive: 74%
12,CCOc1ccc(CCNC(=O)c2nn(-c3ccc(OC)c(Cl)c3)c(=O)c3c2c2ccccc2n3C)cc1OCC,inactive: 90%
13,Cn1c(=O)c2cc(C(=O)NCCCN3CCN(c4cccc(Cl)c4)CC3)sc2c2ccccc21,inactive: 48%
14,Cc1nn(-c2ccccc2)c(-n2cccc2)c1C(=O)NCCc1ccc(Cl)cc1,active: 4%
15,COc1ccccc1NC(=O)NC1(C(=O)N2CCc3ccccc32)CCCCC1,inactive: 93%
16,COc1ccc(C2CC(=O)N(Cc3ccc(F)cc3)c3ccccc3S2)cc1OC (stereo not given),inactive: 100%
17,COc1ccccc1C(=O)NCCn1cc(SCc2ccc(C)cc2)c2ccccc21,active: 22%
18,CCCCCn1c(=O)[nH]c2cc(C(=O)NCc3ccc(Cl)cc3)ccc2c1=O,inactive: 71%
19,CCC1CCc2nc3sc(C(=O)Nc4ccc(C)cc4)c(N)c3cc2C1 (stereo not given),inactive: 64%
20,COc1ccc(OC)c2sc(N3CCN(C(=O)c4ccc5c(c4)CCCC5)CC3)nc12,inactive: 88%
21,CCc1ccccc1NS(=O)(=O)c1ccc2c(c1)CCN2C(=O)C1CC1,inactive: 90%
22,CCc1ccc(-c2nn(CC(=O)NC3CCCCC3)c3c2cnc2ccc(C)cc23)cc1,inactive: 69%
23,c1ccc(N2CCN(Cc3cccn3-c3nnc(N4CCN(C5CCCCC5)CC4)s3)CC2)cc1,inactive: 76%
24,O=C(CN1CCN(Cc2cccc(Cl)c2)C1=O)NCc1ccc(F)cc1,inactive: 79%
25,CCN(c1ccccc1C)S(=O)(=O)c1ccc(N2CCCCS2(=O)=O)cc1,inactive: 125%
26,CCOC(=O)c1ccc(CN(Cc2ccc(Cl)cc2Cl)S(=O)(=O)c2ccc(F)c(C)c2)cc1,inactive: 89%
27,CC(C)Cn1c(=O)c2sccc2n2c(CCCC(=O)NCCc3ccc(Cl)cc3)nnc12,inactive: 90%
